Source: PubChem BioAssay AID1508642 (National Center for Advancing Translational Sciences (NCATS), 2021)
The campaign covered roughly 43,000 compounds. About 200 (0.47%) were called active. Inconclusive results (about 12%) are left out. The call rests on the fitted dose curve; in most records, active means well fitted cell-killing curve with a large enough effect; inconclusive means small, poorly fitted or top-dose-only effect, or effect the other way; inactive means flat fitted curve, though single readings scatter. This is one part of the list.

Assay: Cell viability qHTS assay in S16 Pmp22-F2sN cells; further: nearly all actives have a fitted effect of over 65% in size
Settings: S16 Pmp22-F2sN Schwann cells viability, CellTiter-Glo, 24 h; series mostly up to 57.5 µM; activity change, negative = cytotoxicity: at the top concentration
Method in brief: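 Viability was measured by CellTiter-Glo luminescence (15 min, room temperature). This followed 24 h at 37 °C of compound exposure (23 nL pin transfer) in S16 Pmp22-F2sN Schwann cells, 500-1,000 per well.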
On the % scale 0 is the no-effect control and ±100 the full control effect.

Row | Compound | activity change, negative = cytotoxicity
1 | O=C(Nc1ccc(S(=O)(=O)N2CCC(c3nc4ccccc4s3)CC2)cc1)c1ccccc1 | inactive: 6.21%
2 | CC1CCCCN1Cc1c(O)ccc2c(=O)c(-c3ccccc3Cl)c(C(F)(F)F)oc12 (stereo unspecified) | inactive: 1.13%
3 | CCCCn1c(CNC(=O)C23CC4CC(CC(C4)C2)C3)nnc1SCC(=O)Nc1ccc(C)cc1 | inactive: -8.26%
4 | COCCSc1nc2c([nH]c3ccccc32)c(=O)n1-c1ccc(OC)c(OC)c1 | inactive: 11.3%
5 | CCc1ccc(S(=O)(=O)NCc2ccc3c(c2)CCN3C(=O)c2ccc(C)cc2)cc1 | inactive: -15.8%
6 | CC1=C(C(=O)Nc2ccccc2C)C(c2cccs2)n2nc(SCc3ccccc3)nc2N1 (stereo unspecified) | inactive: 20.2%
7 | CCc1ccc(CNC(=O)C2COc3ccc(OC)cc3C2)cc1 (stereo unspecified) | inactive: 7.24%
8 | CCOC(=O)c1c(C)sc(-c2c(-c3ccccc3)[nH]c3[nH]c(=O)[nH]c(=O)c23)c1O | inactive: 29.5%
9 | CN(Cc1ccccc1)C(=O)CSc1nnc(-c2cccc(Cl)c2)o1 | inactive: -11.5%
10 | COc1ccc(-c2noc(-c3ccc(N4CCOCC4)c([N+](=O)[O-])c3)n2)cc1 | inactive: 0.267%
11 | Cc1scc(CN2CCN(c3ccccc3F)CC2)c1C | inactive: 5.5%
12 | CN(C(=O)CC(=O)Nc1ccc2nc3n(c(=O)c2c1)CCCCC3)c1ccccc1F | inactive: 8.84%
13 | O=C(Cn1ncc2c(Cl)cccc21)NCc1cccc(Cl)c1 | inactive: -6.18%
14 | CCc1ccc(-n2nc(CO)c(C(=O)NCCOC)n2)cc1 | inactive: -2.15%
15 | O=C(Cc1ccccc1)Nc1sc2c(c1C(=O)Nc1cccc(Cl)c1)CCCCC2 | inactive: 14.2%
16 | CC(C)(C)C1CCc2c(sc(NC(=O)c3cccc(Cl)c3)c2C(=O)NCc2ccco2)C1 (stereo unspecified) | inactive: -2.51%
17 | CC(=O)c1ccc(NC(=O)C2CCN(c3nnc(C)c4c(C)n(-c5ccccc5)nc34)CC2)cc1 | inactive: -5.24%
18 | Cc1ccc(-c2cc(C(=O)N3CCN(S(=O)(=O)c4ccc(Br)cc4)CC3)[nH]n2)c(C)c1 | inactive: 9.06%
19 | CC(C)OCCCn1c(=O)c2ccccc2n2c(-c3ccccc3)nnc12 | inactive: 4.23%
20 | Cc1ccc(S(=O)(=O)c2cn(Cc3ccccc3)c3cc(N4CCCCC4)c(F)cc3c2=O)cc1 | inactive: 6.53%
21 | CC(C)CCOc1ccc(Cn2c(=O)oc3ccccc32)cc1 | inactive: 0.403%
22 | COc1ccc(NC(=O)CSC2=Nc3ccccc3C3=NC(CC(=O)NCCc4ccccc4)C(=O)N23)cc1 (stereo unspecified) | inactive: -11.6%
23 | O=C(NCc1ccco1)c1ccc(Cn2c(SCc3ccccc3)nc3cccnc32)cc1 | inactive: 8.9%
24 | COc1ccc(NCc2cccn2-c2nnc(N3CCCCCC3)s2)cc1 | inactive: 6.58%

Row | Compound | activity change, negative = cytotoxicity
25 | COc1ccc(C(=O)c2cn(Cc3ccccc3F)c3cc4c(cc3c2=O)OCCO4)cc1OC | inactive: -13.9%
26 | Cc1ccc(NC(=O)CN2C=NS(=O)(=O)c3ccccc32)cc1 | inactive: -1.03%
27 | COc1ccc(-c2noc(CC(=O)N(C)c3cccc(C)c3)n2)cc1 | inactive: 26.6%
28 | CCOC(=O)COc1ccc(CC)cc1C(=O)c1ccn2nc(-c3ccc(F)cc3)cc2n1 | inactive: 5.96%
29 | CCOC(=O)c1cnc2ccc(Br)cc2c1NCCN1CCOCC1 | inactive: 23.2%
30 | O=C(Nc1ccc(C(=O)OCc2cc(=O)n3nc(C4CC4)sc3n2)cc1)c1ccccc1 | inactive: 3.93%
31 | Cc1cccc(CNC(=O)c2cc3cc(S(=O)(=O)N4CCCCC4)ccc3n2C)c1 | inactive: -19.3%
32 | Cc1ccc(CCNC(=O)Cn2c(-c3cccs3)cc3ccccc32)cc1 | inactive: -4.4%
33 | COc1ccc(Cl)cc1S(=O)(=O)Nc1ccc2[nH]c(=O)[nH]c2c1 | inactive: -16.7%
34 | Cc1ccc(N2CC(NC(=O)c3ccccc3C(F)(F)F)CC2=O)cc1C (stereo unspecified) | inactive: 7.21%
35 | CCc1ccc(S(=O)(=O)c2cn(Cc3ccccc3)c3cc(N4CCCC4)c(F)cc3c2=O)cc1 | inactive: 6.62%
36 | Clc1ccc2c(c1)-n1cc(-c3ccccc3)nc1CO2 | inactive: 21.2%
37 | COc1ccc(NC(=O)CSc2oc(-c3cccs3)nc2S(=O)(=O)c2ccccc2)c(OC)c1 | inactive: 6.39%
38 | Cc1ccc(Cl)cc1N1CCN(C(=O)CCS(=O)(=O)c2cc(Br)cc3c2N(C(=O)C2CC2)CC3)CC1 | inactive: -22.1%
39 | COc1cccc(CNC(=O)C2CCCN(S(=O)(=O)N(C)c3ccc(F)cc3)C2)c1OC (stereo unspecified) | inactive: 3.24%
40 | Cc1cccc(NC(=O)CSC2=Nc3ccccc3C3=NC(CC(=O)NCc4cccs4)C(=O)N23)c1 (stereo unspecified) | inactive: -2.4%
41 | COc1ccc(C(=O)NCCn2cc(SCc3ccc(C(F)(F)F)cc3)c3ccccc32)cc1OC | inactive: -17.9%
42 | COCCn1c(C)cc(O)c(C(c2ccccc2OC)N2CCN(c3ccccc3)CC2)c1=O (stereo unspecified) | inactive: -12.6%
43 | COc1ccccc1/C=C/c1nc(C#N)c(NC2CCCCC2)o1 | inactive: -22.5%
44 | COc1ccc(CNC(=O)CCCn2nc(C)n3c(cc4sccc43)c2=O)cc1 | inactive: 9.73%
45 | CCn1c(CNC(=O)c2ccc(OC)cc2)nnc1SCC(=O)Nc1cc(C)ccc1C | inactive: 14%
46 | Cn1c(/C(C#N)=C/c2ccccc2Br)nc2ccccc21 | inactive: -29.3%
47 | Cc1ccc(C)c(NC(=O)C2CCN(S(=O)(=O)c3c(C)noc3/C=C/c3cccs3)CC2)c1 | inactive: 2.54%
48 | Cc1sc2c(c1C)c(=O)n(CCc1ccccc1)c(=O)n2Cc1ccc(C(C)(C)C)cc1 | inactive: 11.5%

Row | Compound | activity change, negative = cytotoxicity
49 | COc1ccc(Cl)cc1NC(=O)CSc1nccn1-c1ccc(Cl)cc1 | inactive: -3.71%
50 | CCOCN(C(=O)Cn1c(COC)nc2ccccc21)c1c(C)cccc1CC | inactive: 8.9%
51 | COc1ccc(S(=O)(=O)N2Cc3ccccc3CC2C(=O)Nc2cc(Cl)ccc2Cl)cc1 (stereo unspecified) | inactive: -4.01%
52 | COc1ccccc1C(=O)NCc1nc2cccnc2n1Cc1ccc(F)cc1 | inactive: -0.217%
53 | CCc1nn(CC(=O)NCCc2ccc(SC)cc2)c(=O)c2cc3sccc3n12 | inactive: 7.23%
54 | CCCc1cc(=O)n2[nH]c(NCc3c(F)cccc3Cl)nc2n1 | inactive: -5.56%
55 | Cc1ccc(C)c(N2CCN(C(=O)c3cc(C)nc4c3c(C)nn4-c3ccccc3)CC2)c1 | inactive: 5.5%
56 | COc1cc(CN(C(=O)COc2ccc(F)cc2)c2ccccn2)cc(OC)c1OC | inactive: 0.893%
57 | CCOc1ccc(OCC(=O)Nc2ccc(S(=O)(=O)Nc3cc(C)on3)cc2)cc1 | inactive: 1.31%
58 | COc1cc(NC(=O)CCN2CCN(CCO)CC2)cc(OC)c1 | inactive: 3.96%
59 | Cc1ccc(NC(=O)c2ccc(=O)n(CC(=O)Nc3ccccc3)n2)cc1 | inactive: 3.42%
60 | Cn1c(=O)c2sccc2n2c(CCCC(=O)Nc3ccc(Oc4ccccc4)cc3)nnc12 | inactive: -22.4%
61 | CCOC(=O)COc1ccc(-c2nnn(CC(=O)Nc3ccccc3)n2)cc1 | inactive: 8.97%
62 | COc1ccc(N2CCN(S(=O)(=O)c3ccc4c(c3)C(C(C)C)C(=O)N4)CC2)cc1 (stereo unspecified) | inactive: -24.7%
63 | COc1ccc(CNC(=O)CCc2nnc3n(C)c(=O)c4sccc4n23)cc1 | inactive: 17.4%
64 | COC(=O)C1=C(C)N(C(C)C)C(=O)C1(NC(=O)c1ccccc1OC)C(F)(F)F (stereo unspecified) | inactive: 4.72%
65 | COc1ccccc1CNC(=O)C(=O)NCC(c1ccco1)S(=O)(=O)c1ccc(C)cc1 (stereo unspecified) | inactive: -23.8%
66 | Cc1ccccc1CCNC(=O)c1ccc(Cn2c(=O)c3cccn3c3cccnc32)cc1 | inactive: -3.06%
67 | CCc1ccc(NC(=O)c2cc(S(=O)(=O)N3CCCC(C)C3)cn2C)cc1 (stereo unspecified) | inactive: 22.6%
68 | CCOc1cc(-c2nc(-c3ccc(-c4ccccc4)nc3OCC)no2)cc(OCC)c1OCC | inactive: -0.255%
69 | COc1cc(OC)c(NC(=O)c2cnn(-c3ccccc3)c2-n2cccc2)cc1Cl | inactive: 2.99%
70 | O=C(NCc1ccccc1Cl)c1ccccc1NC(=O)c1nsc2ccccc12 | inactive: -1.04%
71 | O=C(CSc1nccn1Cc1ccc(Cl)cc1)Nc1nc2ccccc2s1 | inactive: 9.7%
72 | CCC(=O)N1CCc2cc(Br)cc(S(=O)(=O)Nc3ccccc3C(=O)OC)c21 | inactive: 5.24%

Row | Compound | activity change, negative = cytotoxicity
73 | CCOC(=O)N1CCN(C(=O)c2ccc3c(c2)N(Cc2ccccc2F)C(=O)c2ccccc2S3(=O)=O)CC1 | inactive: 7.37%
74 | CCOc1ccc(CNC(=O)C2CCN(C(=O)c3ccc(-n4ccc5ccccc54)s3)CC2)cc1 | inactive: 2.04%
75 | CCOc1ccc(Nc2cc(C(=O)NCc3ccccc3Cl)c3ccccc3n2)cc1 | inactive: 4.24%
76 | O=C(Nc1ccc(Br)c(Cl)c1)c1ccc(C(=O)Nc2ccc(Br)c(Cl)c2)cc1 | inactive: -1.08%
77 | CCc1ccc(NC(=O)CSc2nc3c(c(=O)[nH]2)CN(Cc2ccc4c(c2)OCO4)CC3)cc1 | inactive: 3.89%
78 | O=C(COc1ccccc1)NCC(c1ccc(Cl)cc1)N1CCCCC1 (stereo unspecified) | inactive: -0.136%
79 | Cc1ccc(C)c(N2CCN(S(=O)(=O)c3c(C(=O)N4CCC(C)CC4)c(C)n(C)c3C)CC2)c1 | inactive: -8.56%
80 | O=C(CCCc1ccccc1)NC1CC(=O)N(c2cccc(F)c2)C1 (stereo unspecified) | inactive: 1.25%
81 | CC1CCCCN1CCCNC(=O)CN1C(=O)c2cccnc2Oc2ccc(Cl)cc21 (stereo unspecified) | inactive: 13.8%
82 | CCOc1ccccc1C1C(C(=O)Nc2ccccc2)=C(C)Nc2nc(SCC(=O)c3ccc(C)cc3)nn21 (stereo unspecified) | inactive: -0.313%
83 | CN(C(=O)CSc1nc(-c2ccccc2)no1)c1ccc(F)cc1 | inactive: 23.4%
84 | COc1ccc(C(=O)c2sc3nc4c(c(C(F)(F)F)c3c2N)CN(C(C)=O)CC4)cc1OC | inactive: -3.8%
85 | O=C(COc1ccccc1)Nc1nnc(S(=O)(=O)Nc2ccccc2)s1 | inactive: -4.61%
86 | Cc1ccc(Cl)cc1N1CCN(S(=O)(=O)c2cn(C)c(C)n2)CC1 | inactive: 13.4%
87 | CCN(Cc1ccccc1)c1ncnc2c1cnn2-c1ccc(F)cc1 | inactive: 2.49%
88 | CCOc1ccccc1NC(=O)Nc1nnc(N2CCCC(C)C2)s1 (stereo unspecified) | inactive: -17.6%
89 | O=C(c1ccc(Cl)cc1)N1CCN(CCc2ccncc2)CC1 | inactive: 16.1%
90 | CCc1ccccc1N1C(=O)CN(S(=O)(=O)CC)CC1(C)C(=O)NC1CCCCC1 (stereo unspecified) | inactive: 4.22%
91 | CCC(=O)OC1=C(C(C)=O)N(Cc2ccccc2)S(=O)(=O)c2ccccc21 | inactive: 1.87%
92 | COc1ccc(C(=O)NCc2ccc3c(c2)CCN3C(C)=O)c(OC)c1 | inactive: -3.21%
93 | Cc1ccccc1NC(=O)C1CCN(S(=O)(=O)c2c(C)noc2/C=C/c2ccco2)CC1 | inactive: -11.1%
94 | CCC(=O)N1CCc2cc(CNC(=O)c3cccc(N(C)C)c3)ccc21 | inactive: 7.05%
95 | COc1ccc(NC(=O)C2CCCN(c3ncnc4onc(C)c34)C2)cc1OC (stereo unspecified) | inactive: -3.71%
96 | COc1ccc(-c2cc(C(=O)N3CCCCC3C)no2)cc1OC (stereo unspecified) | inactive: -3.49%
